According to the supplement of paper PMC8728848:
Some of the results follow.

Assays:
Assay in all cases: glycan array binding signal (z-score within array); higher = stronger binding
Conditions in all cases: glycan notation: IUPAC condensed, linker removed
[1] = molecular target: Gal3S6S(b1-4)GlcNAc
Method in brief: (§1)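 Glycan array data came from 3228 arrays in the Consortium for Functional Glycomics database, and only arrays with an available protein sequence were kept. Glycan names were put into IUPAC-condensed notation, and columns mapping to the same glycan were averaged. The binding signal is a within-array Z-score, averaged across arrays of one protein sequence run at different concentrations or buffers and across linkers. A negative Z-score can be read as non-binding.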

[2] = molecular target: Gal3S6S(b1-4)GlcNAc6S
Method in brief: as §1

[3] = molecular target: Gal4S(b1-4)GlcNAc
Method in brief: as §1

[4] = molecular target: Gal4S6S(b1-4)GlcNAc
Method in brief: as §1

[5] = molecular target: Gal6P(b1-4)GlcNAc
Method in brief: as §1

[6] = molecular target: Gal6S(b1-3)GlcNAc
Method in brief: as §1

[7] = molecular target: Gal6S(b1-3)GlcNAc6S
Method in brief: as §1

[8] = molecular target: Gal6S(b1-4)Glc
Method in brief: as §1

[9] = molecular target: Gal6S(b1-4)Glc6S
Method in brief: as §1

[10] = molecular target: Gal6S(b1-4)GlcNAc
Method in brief: as §1

[11] = molecular target: Gal6S(b1-4)GlcNAc6S
Method in brief: as §1

[12] = molecular target: GalNAc(a1-3)Gal
Method in brief: as §1

[13] = molecular target: GalNAc(a1-3)GalNAc
Method in brief: as §1

[14] = molecular target: GalNAc(a1-3)GalNAc(b1-3)Gal(a1-4)Gal(b1-4)Glc
Method in brief: as §1

[15] = molecular target: GalNAc(a1-3)GalNAc(b1-3)Gal(a1-4)Gal(b1-4)GlcNAc
Method in brief: as §1

[16] = molecular target: GalNAc(b1-3)Gal
Method in brief: as §1

[17] = molecular target: GalNAc(b1-3)Gal(a1-4)Gal(b1-4)GlcNAc
Method in brief: as §1

[18] = molecular target: GalNAc(b1-3)Gal(a1-4)Gal(b1-4)GlcNAc(b1-3)Gal(b1-4)Glc
Method in brief: as §1

[19] = molecular target: GalNAc(b1-3)Gal(a1-6)Gal(b1-4)Glc
Method in brief: as §1

[20] = molecular target: GalNAc(b1-3)GalNAc
Method in brief: as §1

[21] = molecular target: GalNAc(b1-3)GlcNAc
Method in brief: as §1

[22] = molecular target: GalNAc(b1-4)Gal(b1-4)Glc
Method in brief: as §1

[23] = molecular target: GalNAc(b1-4)GlcNAc
Method in brief: as §1

[24] = molecular target: GalNAc(b1-4)GlcNAc(b1-2)Man
Method in brief: as §1

[25] = molecular target: GalNAc(b1-4)GlcNAc(b1-2)Man(a1-3)[GalNAc(b1-4)GlcNAc(b1-2)Man(a1-6)]Man(b1-4)GlcNAc(b1-4)GlcNAc
Method in brief: as §1

[26] = molecular target: GalNAc(b1-4)GlcNAc(b1-3)GalNAc(b1-4)GlcNAc
Method in brief: as §1

[27] = molecular target: GalNAc(b1-4)GlcNAc6S
Method in brief: as §1

[28] = molecular target: GalNAc(b1-6)GalNAc
Method in brief: as §1

[29] = molecular target: GalNAc3S(b1-4)GlcNAc
Method in brief: as §1

[30] = molecular target: GalNAc3S(b1-4)GlcNAc3S
Method in brief: as §1

[31] = molecular target: GalNAc3S(b1-4)[Fuc(a1-3)]GlcNAc
Method in brief: as §1

[32] = molecular target: GalNAc4S6S(b1-4)GlcNAc
Method in brief: as §1

[33] = molecular target: GalNAc6S(b1-4)GlcNAc
Method in brief: as §1

[34] = molecular target: Glc(a1-4)Glc
Method in brief: as §1

[35] = molecular target: Glc(a1-4)Glc(a1-4)Glc(a1-4)Glc
Method in brief: as §1

[36] = molecular target: Glc(a1-6)Glc(a1-6)Glc
Method in brief: as §1

[37] = molecular target: Glc(a1-6)Glc(a1-6)Glc(a1-6)Glc
Method in brief: as §1

[38] = molecular target: Glc(b1-4)Glc
Method in brief: as §1

B1: SP8524D-bot-399-27-399 (Bacteroides ovatus) (protein)
chain: DAKYDTLDTHAYIEEALSSTSQKVTVQATGESFTTLNVHLSNLSSTDNHYKLVTDQSVLDTYNHINGTGYIMLPKDYYTLPETITVKAGQYAADALSIALKAFSQEMMKSGESYALPVKLVLQDGSISPMENTGTFVILAESIIEFSAPMFVGAPSLKANKFTESPETYSQYTIEVRFQVANTADRDRAVFKNGGDDANFILLRFEDPQSDNENYKAHSLVQIVGRNRLYLNPSNSFKPNEWQHLALVCDGSNYRLYINGVDSGVLSIPTGATTFSDVNWFCLGDDSYSRWGNCKILMSEARIWSVVRSASQIQNNMTQVSPKSVGLEAYWRFNEGQGNVFEDATGKGHTLTTSATPTWIDGILSTDKSTEWK
glycan array binding signal (z-score) [1]: 0.506 | glycan array binding signal (z-score) [2]: 0.124 | glycan array binding signal (z-score) [3]: 0.045 | glycan array binding signal (z-score) [4]: 0.875 | glycan array binding signal (z-score) [5]: 0.046 | glycan array binding signal (z-score) [6]: -0.216 | glycan array binding signal (z-score) [7]: 0.293 | glycan array binding signal (z-score) [8]: -0.015 | glycan array binding signal (z-score) [9]: -0.373 | glycan array binding signal (z-score) [10]: 0.112 | glycan array binding signal (z-score) [11]: 0.274 | glycan array binding signal (z-score) [12]: -0.307 | glycan array binding signal (z-score) [13]: -0.153 | glycan array binding signal (z-score) [14]: -0.421 | glycan array binding signal (z-score) [15]: -0.337 | glycan array binding signal (z-score) [16]: -0.272 | glycan array binding signal (z-score) [17]: 0.126 | glycan array binding signal (z-score) [18]: -0.549 | glycan array binding signal (z-score) [19]: -0.334 | glycan array binding signal (z-score) [20]: -0.48 | glycan array binding signal (z-score) [21]: -0.116 | glycan array binding signal (z-score) [22]: -0.135 | glycan array binding signal (z-score) [23]: 0.432 | glycan array binding signal (z-score) [24]: 0.026 | glycan array binding signal (z-score) [25]: -0.19 | glycan array binding signal (z-score) [26]: -0.306 | glycan array binding signal (z-score) [27]: 0.264 | glycan array binding signal (z-score) [28]: -0.112 | glycan array binding signal (z-score) [29]: -0.2 | glycan array binding signal (z-score) [30]: -0.359 | glycan array binding signal (z-score) [31]: 0.563 | glycan array binding signal (z-score) [32]: -0.062 | glycan array binding signal (z-score) [33]: -0.432 | glycan array binding signal (z-score) [34]: -0.117 | glycan array binding signal (z-score) [35]: -0.243 | glycan array binding signal (z-score) [36]: -0.172 | glycan array binding signal (z-score) [37]: -0.387 | glycan array binding signal (z-score) [38]: -0.387
